Sequences and labels used below:
B1: chr16:22286016:22286117:+|3pUTR|ENSG00000103319|msi1|FALSE|unique (ssRNA)
RNA: GGGAGUUCUACAGUCCGACGAUCCUGAGCCCAGCCAAGACUUCAGUGUUGACUGCUUUGGAGGCACAAACCCAUGCAAGCGUUAGUUCCAAAGUUCAGUGUGUACCCUUAAAUGAACAAUGAAGCAGGUAAAAUUACCCUUGACAACAGAGGAUUGAGCAUCA
B2: ENSG00000136451:be:win_2551|3pUTR|ENSG00000136451|bound_else_gene|NA|bound_elsewhere_windowed (ssRNA)
RNA: GGGAGUUCUACAGUCCGACGAUCUCACUAGAGUUUAUGUCUUAUAUUAAAUUGUAUACAGUUUUUAUUCUAACCACUAACUAGGUAGUGUAUGCCCCUUCAGAACAUGCAGAGUGUAUCUUUUUUUAAAUUUCUCCUUCCGUUCAACAGAGGAUUGAGCAUCA
B3: chr11:92354873:92354974:+|CDS|ENSG00000165323|unk|FALSE|bound_elsewhere (ssRNA)
RNA: GGGAGUUCUACAGUCCGACGAUCGUCACUCUUAAAGUUUUUUUAGAUGAUGUCAAUGACUGCUCCCCAGCUUUCAUUCCCAGUAGCUAUAGUGUGAAGGUUCUUGAAGAUCUCCCUGUUGGCACUGUCAUUGCUUGGCUUGAGCAACAGAGGAUUGAGCAUCA
B4: chr14:55188946:55189174:-|CDS|ENSG00000126787|unk|total|mutant (ssRNA)
RNA: GGGAGUUCUACAGUCCGACGAUCAUUGCUCACCGGAAAUCACUGUCUCAGAAAGAAAACCGACAUAAGGAAUACGAACGAAACCGACACUUUGGUUUGAAAGAUGUAAACAUUCCAACCUUGGAAGGCCGAAUUCUUGUUGAACAACAGAGGAUUGAGCAUCA
B5: chr3:15255350:15255451:-|3pUTR|ENSG00000131370|msi1|total|mutant (ssRNA)
RNA: GGGAGUUCUACAGUCCGACGAUCUGGGGUGGGAAAGGUGAAUGCCAGUGGGGAUGCGGGGGGAUGAGGGCCGGAGGGACUUACCGAAGGGGAUUUGUGGCUGUGGGGGAGAAGGUUCUACAGCAUAAGCCUUAUCCUGCCAGCCAACAGAGGAUUGAGCAUCA
B6: chr22:36488912:36489013:-|3pUTR|ENSG00000100350|msi1|FALSE|unique (ssRNA)
RNA: GGGAGUUCUACAGUCCGACGAUCCUAGUCUCUUCUUCAUUGCCCUUCCUCACCAGCAAUCUGCACUUUCCCAUCAGGCGUCUUAGUCUCAUUUGUAAGUGCAUAAGAUAAUCACAGUGAUUUUUCAAAGCCCAGGAUCAUAAGCAACAGAGGAUUGAGCAUCA
B7: chr4:48579112:48579224:-|CDS|ENSG00000075539|unk|total|mutant (ssRNA)
RNA: GGGAGUUCUACAGUCCGACGAUCCUCUAUUGCCCCCGCUCGACCGAUUUACAAACUUCCGCAGAAUGGAACUCUUCUCCUAUCCGCCACCAGUUUGAUGUGAUCCGUCCAUCACAUAUAUGGAUAUUUGCACAUGUGACCCAACAACAGAGGAUUGAGCAUCA
B8: ENSG00000198589:be:win_4401|CDS|ENSG00000198589|bound_else_gene|NA|bound_elsewhere_windowed (ssRNA)
RNA: GGGAGUUCUACAGUCCGACGAUCGGGAGAUAAAGCCUUGAAACCAAUGCAUAGCCUUAUUCCUUUAGGGAAAUCUGCAGCGAAGAGCCCAGUGGACAUUGUGACUGGCGGUAUAUCUCCAGUAAGAGAUCUUGACAGGCUUCUCAACAGAGGAUUGAGCAUCA
B9: ENSG00000136451:be:win_4301|3pUTR|ENSG00000136451|bound_else_gene|NA|bound_elsewhere_windowed (ssRNA)
RNA: GGGAGUUCUACAGUCCGACGAUCCUCUAGGGCUCGCUGCUUGGCCUGCGUUUGCUUUUUAUUGUGUAUCCGUUCCCCUCCUACGGUGUGCUCCUGAAUGAAGGUUUCUAUGUAAGCAGAUGAUGAUUUUACCUGUCAAUACCACAACAGAGGAUUGAGCAUCA
B10: chr22:20586770:20586871:+|3pUTR|ENSG00000099917|unk|FALSE|unique (ssRNA)
RNA: GGGAGUUCUACAGUCCGACGAUCACACGCCUCCUGUCAGACACUUCUAGGUGUUGGCUUCCUUAGAGAGCCUGGGGUUAGGUUAGCUUUCCUGCUUUUAUCUUCUGCCUUGGGGACCUGCCAAACGAAAUCCCACACCUGUACCAACAGAGGAUUGAGCAUCA
B11: ENSG00000070961:be:win_6101|3pUTR|ENSG00000070961|bound_else_gene|NA|bound_elsewhere_windowed (ssRNA)
RNA: GGGAGUUCUACAGUCCGACGAUCUAAAGAUCUUGGAUCCCAUUAUAUAGUAUGUAUAGCUGAAAUCUGUAAUUCAAUCACUUUUUCUCUUUUAUCCUCUAACCAAAAAAUUGUUUAAUUUUGCAUCCCAAAUGUUUUUAAUCUCAACAGAGGAUUGAGCAUCA
B12: chr1:36180537:36180567:+|3pUTR|ENSG00000116871|msi1_unk|total|mutant (ssRNA)
RNA: GGGAGUUCUACAGUCCGACGAUCCAUACACACAUAUACACUCACAGCCUCUCUGGCCUCUUCCCUUGGGGAGGGGCCACCUGCCGUAUUUGCCUUGAUUUGGUGGGGUACAGUGGAUGUGAAUACUGUAAACCGCUUGUGCUCCAACAGAGGAUUGAGCAUCA
B13: chr13:46334680:46343497:-|three_prime_utr|ENSG00000102445|control|control|control (ssRNA)
RNA: GGGAGUUCUACAGUCCGACGAUCGACUGUUCAACAUGCCUUAUGAUAACACCGAUUUGUGUCUAUUAUUGGUGACAUUGUUUUAGAUAUUGGGUAUUGUAUAUUAAGGAAAAAGAUGGUCUAUAUUCUCUUUAUUGCAUAUACCAACAGAGGAUUGAGCAUCA
B14: chr1:55154109:55154210:-|CDS|ENSG00000162402|msi1|total|mutant (ssRNA)
RNA: GGGAGUUCUACAGUCCGACGAUCCCUCCGUGAUGCAUAUGCAGUGAAAGAAGCAAUCAAGAGGAGCUACAUCAUCAAGUGCACCGAAGAUAUUAAGAGGGUUGGUUUCAGCUUUUAUCUGAUUUUGUUGUCCGAGCAACAGUACAACAGAGGAUUGAGCAUCA

The list shows a part of the results.

The experiment deals with MSI1 full-length (mouse, UniProt Q61474 1-362). As to the kind of experiment: nsRBNS (natural sequence RNA bind-n-seq); RBNS binding buffer (assumed for nsRBNS): 25 mM Tris pH 7.5, 150 mM KCl, 3 mM MgCl2, 0.01% Triton X-100, 500 ug/ml BSA, 20 U/ml SUPERase-In, 4 C; UNK is unkempt and MSI1 is Musashi-1; names of the RNAs are library labels; protein concentration not given here; high values mean tight binding.
Sequence of UniProt Q61474 (Q61474 whole entry): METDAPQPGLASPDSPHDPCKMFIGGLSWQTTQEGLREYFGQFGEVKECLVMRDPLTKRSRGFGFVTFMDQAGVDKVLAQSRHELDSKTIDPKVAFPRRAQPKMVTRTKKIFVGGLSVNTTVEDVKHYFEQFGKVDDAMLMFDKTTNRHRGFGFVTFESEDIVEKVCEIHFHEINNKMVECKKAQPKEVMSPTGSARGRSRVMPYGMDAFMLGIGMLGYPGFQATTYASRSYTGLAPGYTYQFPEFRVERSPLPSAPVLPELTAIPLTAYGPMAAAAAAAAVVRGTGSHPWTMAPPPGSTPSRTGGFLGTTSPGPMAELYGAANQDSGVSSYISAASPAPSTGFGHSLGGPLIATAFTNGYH
B1 displayed a binding signal of 0.461 enrichment R.

Consider B2, for which the binding signal worked out at 10.4 enrichment R.

B3 returned a binding signal of 1.06 enrichment R.

In turn, B4 came in with a binding signal of 0.141 enrichment R.

In turn, B5 had a binding signal of 0.625 enrichment R.

The molecule B6 showed a binding signal of 0.334 enrichment R.

Molecule B7 displayed a binding signal of 0.602 enrichment R.

B8 came in with a binding signal of 1.05 enrichment R.

In the case of B9, the binding signal was 0.422 enrichment R.

Molecule B10 returned a binding signal of 1.12 enrichment R.

The molecule B11 showed a binding signal of 30 enrichment R.

The molecule B12 displayed a binding signal of 0.331 enrichment R.

Regarding B13, the binding signal amounted to 0.926 enrichment R.

Molecule B14 registered a binding signal of 0.36 enrichment R.
